“And” between values parts separate entries of the source, which are not always exact repeats. Identical values can stand only once. Inconclusive means that the source gave no clear call. Such entries were picked first, then a sample of the others. Potencies of inconclusive entries are doubtful fits and often do not repeat. Some structures have more than one record in an assay (separate samples or runs), and their calls can disagree. The source made the active and inactive calls. Calls follow the shape of the dose curve; as a rule, active = well fitted cell-killing curve with a large enough effect in the repeat runs; inconclusive = weak or mixed curves, or effect the other way; inactive = no such curve, though single readings can be large or run the other way.
Experiment: qHTS assay to identify small molecule antagonists of the thyroid receptor (TR) signaling pathway - cell viability counter screen (AID 743064); also: nearly all actives have a fitted effect of over 50% in size
Conditions: GH3.TRE-Luc viability, CellTiter-Fluor, 24 h; activity change, negative = cytotoxic: at 70.3 µM (top of the series) unless noted
How it was run: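 Viability of T3-stimulated (1 nM final) GH3.TRE-Luc cells is measured by CellTiter-Fluor fluorescence after 23.5 h compound exposure at 37 °C plus 30 min reagent incubation.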
% is scaled to controls: 0 for no effect and ±100 for the full control effect; potency is read from the fitted curve at half-maximal effect; tags tell the direction and shape of the fitted curve.

SMILES | Potency | activity change, negative = cytotoxic
CCC(C)(C)c1cc(O)c(C(C)(C)CC)cc1O | inactive | –
Clc1ccc(C(c2ccccc2Cl)C(Cl)Cl)cc1 (stereo not drawn) | inconclusive: 33.5 µM [cytotoxic, single point] and inconclusive: 68.6 µM [cytotoxic, single point] | –
CCCCCCCCCCCCCCCCC(C(=O)O)C(O)(CC(=O)O)C(=O)O (stereo not drawn) | active: 26.6 µM | –
[Cl][Bi]([Cl])([c]1ccccc1)([c]1ccccc1)[c]1ccccc1 | active: 1.71 µM | –
C#CC1(O)CC[C@H]2[C@@H]3CCC4=CCCC[C@@H]4[C@H]3CC[C@@]21C (stereo partly drawn) | inconclusive: 12.7 µM [cytotoxic, single point] | –
COc1cc(Cc2cnc(N)nc2N)cc(OC)c1OC | inconclusive: 30.5 µM [rising, full curve] | –
CC(C)CCCCCCc1ccc(O)cc1 | inconclusive: 33.5 µM [cytotoxic, single point] | –
CC(=O)N1CCN(c2ccc(OC[C@H]3CO[C@](Cn4ccnc4)(c4ccc(Cl)cc4Cl)O3)cc2)CC1 | inactive and active: 21.7 µM | –
O=C(Nc1ccccc1)c1cc(Cl)ccc1O | active: 10.9 µM | –
CCc1ccc(O)cc1 | inconclusive: 68.9 µM [rising, partial curve, poor fit] | –
CC(C)c1ccc2sc3ccccc3c(=O)c2c1 | inactive | –
CCCCC(CC)CN1CN(CC(CC)CCCC)CC(C)(N)C1 (stereo not drawn) | – | inconclusive: -31% [cytotoxic] [at 32.5 µM]
S=C(SSSSSSC(=S)N1CCCCC1)N1CCCCC1 | inconclusive: 15.1 µM [cytotoxic, single point] | –
COc1cc([C@@H]2c3cc4c(cc3[C@@H](O[C@@H]3O[C@@H]5CO[C@@H](C)O[C@H]5[C@H](O)[C@H]3O)[C@H]3COC(=O)[C@H]23)OCO4)cc(OC)c1O | inconclusive: 5.96 µM [cytotoxic, full curve] and active: 4.28 µM | –
S=P(N1CC1)(N1CC1)N1CC1 | inconclusive: 53.2 µM [cytotoxic, partial curve, poor fit] | –
CC1=C(/C=C/C(C)=C/C=C/C(C)=C\C(=O)O)C(C)(C)CCC1 | inconclusive: 68.8 µM [cytotoxic, single point] | –
Clc1ccc(C(Cn2ccnc2)OCc2c(Cl)cccc2Cl)c(Cl)c1 (stereo not drawn) | inconclusive: 14.3 µM [cytotoxic, single point] | –
CCCSS/C(CCO)=C(\C)N(C=O)Cc1cnc(C)nc1N | active: 26.6 µM | –
CC[C@]1(O)C[C@H]2CN(CCc3c([nH]c4ccccc34)[C@@](C(=O)OC)(c3cc4c(cc3OC)N(C=O)[C@H]3[C@@](O)(C(=O)OC)[C@H](OC(C)=O)[C@]5(CC)C=CCN6CC[C@]43[C@@H]65)C2)C1 | active: 0.106 µM | –
CSc1ccc2c(c1)C(N1CCN(C)CC1)Cc1ccccc1S2 (stereo not drawn) | active: 7.5 µM | –
OCCO | inconclusive: 69 µM [rising, single point] | –
Cc1ccc(C(C)(C)C)c(O)c1 | inconclusive: 74.5 µM [cytotoxic, single point] and inconclusive: 68.6 µM [cytotoxic, single point] | –
CC(CN1c2ccccc2Sc2ccccc21)N(C)C (stereo not drawn) | active: 23.7 µM and active: 5.5 µM and active: 30.6 µM | –
Oc1ccc(Cl)cc1C1CCCC1 | inconclusive: 68.6 µM [cytotoxic, single point] | –
Cc1ccc2nc(-c3ccc(N)cc3)sc2c1S(=O)(=O)O | inconclusive: 33.8 µM [cytotoxic, single point] | –
CCCCOCCOCCOC(C)=O | inconclusive: 67.1 µM [rising, single point] | –
CC1=C(C(=O)OC(C)C)C(c2cccc([N+](=O)[O-])c2)C(C(=O)OC2CN(C(c3ccccc3)c3ccccc3)C2)=C(N)N1 (stereo not drawn) | active: 2.98 µM | –
CCCCCCOc1cc(C)c(O)c(C)c1C | active: 49.2 µM | –

From PubChem BioAssay (Tox21)
